The supplement of paper PMC11417369
± gives the standard deviation of the averaged measurements. Some of the results follow.

Test system: PfAP2-G AP2 domain (GST-tagged)
Assay: gcPBM binding intensity (ln(normalized median fluorescence intensity)); higher = stronger DNA binding
Method in brief: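 DNA-binding domains from P. falciparum, fused to GST and produced in E. coli, were put on an Agilent 4 × 180k double-stranded probe array for 1 h in 1× PBS holding 1% milk, 0.2 mg/ml BSA, 0.5% salmon testes DNA and 0.03% Triton X-100. Probes were primer-extended, 36 bp long and drawn from intergenic genomic regions, with negative controls included. After Alexa488 anti-GST antibody detection and a 488 nm scan, binding intensity was set as the highest Masliner-normalised natural-log median intensity across replicate spots of either probe orientation.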

Question: Which “gcPBM binding intensity (ln)” value does the source give for “AAAGTAAAAAAAAAAACATGCACATATTTACTTTAT [TGCATGCA_site849]” here?
Answer: 9.77 ± 0.32

Question: Which “gcPBM binding intensity (ln)” value does the source give for “TTTTTTTTGGTTTTCATGCACACAATTTATAAATCT [CACACA_site3107]” here?
Answer: 10.5 ± 0.29

Question: With “AAGGGAATATACCTTACACACAAAAATGCAGATATA [CACACA_site1451]” as the sequence, how does the “gcPBM binding intensity (ln)” value read?
Answer: 9.88 ± 0.028

Question: For “GTTAATATACTTAATACACACACGAATATATATAAA [CACACA_site1181]”, which “gcPBM binding intensity (ln)” value is on record?
Answer: 10.2 ± 0.19

Question: With “AAAAAAAAAAAGAAGGAAACATTTGACCAAAAATAT [GTGCAC_negctrl_site404]” as the sequence, how does the “gcPBM binding intensity (ln)” value read?
Answer: 10.6 ± 0.28

Question: How did the “gcPBM binding intensity (ln)” value turn out when “ATTCTATACATATATATACACACGTAGTTTCTATTT [CACACA_site2223]” was run?
Answer: 10.02 ± 0.049

Question: Which “gcPBM binding intensity (ln)” value does the source give for “TTTTAAATATGCCATACACACTACTATATAATAAAT [CACACA_site5119]” here?
Answer: 10.1 ± 0.12

Question: For “AAAAAAAAAAAATATTGTAGAATATGATGACTTTGT [GTGCAC_negctrl_site554]”, which “gcPBM binding intensity (ln)” value is on record?
Answer: 9.58 ± 0.3

Question: “AACAACCAAAGGCACACACACAAAAAAAAAAATATA [CACACA_site399]” was tested. Which “gcPBM binding intensity (ln)” value did it give?
Answer: 10.2 ± 0.39

Question: How did the “gcPBM binding intensity (ln)” value turn out when “CTGCGTTTAATATGCGTGCACCTTGGTTTTATATCT [GTGCAC_site9525]” was run?
Answer: 10.4 ± 0.2

Question: With “ATTTTATTTTCATATGAACACACATATATATATTAT [CACACA_site8741]” as the sequence, how does the “gcPBM binding intensity (ln)” value read?
Answer: 10.19 ± 0.092

Question: “ACAAAACTGTCTTTCACACAGAAATAAAAAAAAAAA [CACACA_site5829]” was tested. Which “gcPBM binding intensity (ln)” value did it give?
Answer: 9.91 ± 0.38

Question: For “TGATAAGGATGTGAATTACTCAAAGGAAGTAATCAT [CACACA_negctrl_site1432]”, which “gcPBM binding intensity (ln)” value is on record?
Answer: 9.895 ± 0.092

Question: How did the “gcPBM binding intensity (ln)” value turn out when “AAATTTCATGGGTATTGTACATAATTTTATTATATA [XGTACX_site4988]” was run?
Answer: 10.9 ± 0.62

Question: How did the “gcPBM binding intensity (ln)” value turn out when “ACATAAGATGAAAAATGTACATTCAAAAAATGAAAT [XGTACX_site3227]” was run?
Answer: 10.9 ± 0.72

Question: Which “gcPBM binding intensity (ln)” value does the source give for “AAAGTAAAAGAAAGCACACACACATGGATTTATGTA [CACACA_site5997]” here?
Answer: 10.06 ± 0.035

Question: How did the “gcPBM binding intensity (ln)” value turn out when “TTCTTTTTAAATTACACACACATATATATATGTATA [CACACA_site3515]” was run?
Answer: 10.07 ± 0.085

Question: For “AGATATTATTTATATATTTATATATATATATAGATA [TGCATGCA_negctrl_site77]”, which “gcPBM binding intensity (ln)” value is on record?
Answer: 9.54 ± 0.11

Question: For “AGAGAAAAAAAAAATTGTACGTATGTAATAATATGC [XGTACX_site2981]”, which “gcPBM binding intensity (ln)” value is on record?
Answer: 11.3 ± 0.66

Question: How did the “gcPBM binding intensity (ln)” value turn out when “TAAATATCAAGACACACACACAAAAGTGAATAAATA [CACACA_site7723]” was run?
Answer: 10.1 ± 0.18

Question: Which “gcPBM binding intensity (ln)” value does the source give for CCATGTAGTGAATAGGTGCATATCAAAAAAAAAAAA here?
Answer: 10.1 ± 0.57

Question: With “ATACATATGGTGGATCGTACATATATATAATATGTA [XGTACX_site8631]” as the sequence, how does the “gcPBM binding intensity (ln)” value read?
Answer: 10.9 ± 0.4

Question: For “ACAGAAAATAAAATTTGTACATATATAGAATAAAGA [XGTACX_site3014]”, which “gcPBM binding intensity (ln)” value is on record?
Answer: 10.8 ± 0.39

Question: Which “gcPBM binding intensity (ln)” value does the source give for “TATTTACACCCATGCGCACACATAAATAAATAATAG [CACACA_site5350]” here?
Answer: 10.7 ± 0.52

Question: Which “gcPBM binding intensity (ln)” value does the source give for “TATATATATGTATGTGGTACTTATATTATATACATA [XGTACX_site4550]” here?
Answer: 10.9 ± 0.67

Question: How did the “gcPBM binding intensity (ln)” value turn out when “TTATACACAAAAAAAAAAATATATATATATATATAT [XGTACX_negctrl_site5]” was run?
Answer: 9.7 ± 0.42

Question: Which “gcPBM binding intensity (ln)” value does the source give for “ATTTATGAGTAATACACACACTTGTGGATATATTAC [CACACA_site7735]” here?
Answer: 10.2 ± 0.16

Question: How did the “gcPBM binding intensity (ln)” value turn out when “TTTATATAATATAAATTTTTTTTGCAGTAATAAAAA [TGCATGCA_negctrl_site570]” was run?
Answer: 9.78 ± 0.15

Question: “ACTTCAAAAAAAAAAAAATATATATATATATATTAT [GTGCAC_negctrl_site158]” was tested. Which “gcPBM binding intensity (ln)” value did it give?
Answer: 9.54 ± 0.11

Question: For “TGTTGTATTGAAGCTAAAAAATGAGGCAAAAAAAAA [CACACA_negctrl_site1189]”, which “gcPBM binding intensity (ln)” value is on record?
Answer: 10.2 ± 0.26

Question: With “AAGAAAAACTTATATATATATATATATATATATATA [TGCATGCA_negctrl_site466]” as the sequence, how does the “gcPBM binding intensity (ln)” value read?
Answer: 10.2 ± 1

Question: How did the “gcPBM binding intensity (ln)” value turn out when “TCATACATGTATATGTGTACATATAATGTATATTCC [XGTACX_site6082]” was run?
Answer: 11.3 ± 0.95

Question: With “TTTTTTTTTTTTTTTTTTTTTTTATGTTCTTAAAAA [GTGCAC_negctrl_site62]” as the sequence, how does the “gcPBM binding intensity (ln)” value read?
Answer: 9.56 ± 0.35

Question: “TTTTTTTTTTTTACGTGTACATAAATGTTAAGTAAT [XGTACX_site3901]” was tested. Which “gcPBM binding intensity (ln)” value did it give?
Answer: 11.4 ± 0.91

Question: How did the “gcPBM binding intensity (ln)” value turn out when “AAAATATAGGTATGCACACACATATACTTCTGTGCA [CACACA_site1409]” was run?
Answer: 10.15 ± 0.064

Question: For “AAAAAAAAAAAAAAAAGTACAAAAAGAAGAAAAAAA [XGTACX_site6521]”, which “gcPBM binding intensity (ln)” value is on record?
Answer: 11.3 ± 0.85

Question: For “TATAAATATTTATGTACACACATATACATGTTGAAT [CACACA_site5684]”, which “gcPBM binding intensity (ln)” value is on record?
Answer: 11.3 ± 0.82

Question: How did the “gcPBM binding intensity (ln)” value turn out when “CAATGTTAACATATTACACACATATGTATTTATAAC [CACACA_site7314]” was run?
Answer: 10.1 ± 0.099

Question: For “TAAATATATAATAAATGTACATATTAATATTATGGT [XGTACX_site1498]”, which “gcPBM binding intensity (ln)” value is on record?
Answer: 11.1 ± 0.45

Question: With “TATAAATATACAAACACACATACAAACATATATATA [CACACA_site1120]” as the sequence, how does the “gcPBM binding intensity (ln)” value read?
Answer: 10.1

Question: Which “gcPBM binding intensity (ln)” value does the source give for “TTAATACCCAGACACACACACACAAAATAAAATACA [CACACA_site7968]” here?
Answer: 10.2 ± 0.4

Question: How did the “gcPBM binding intensity (ln)” value turn out when “AAAAAAAATTTAATTGCACACAGGAAAATATAATTT [CACACA_site3810]” was run?
Answer: 10.015 ± 0.007

Question: With “TAAATACAGAGGAAAATACACACGTATATATATAAA [CACACA_site3410]” as the sequence, how does the “gcPBM binding intensity (ln)” value read?
Answer: 10.3 ± 0.13

Question: How did the “gcPBM binding intensity (ln)” value turn out when “ATTTGATATATAATAATACACACTTACATAATTAAT [CACACA_site290]” was run?
Answer: 9.985 ± 0.035
